# Assay results taken from PubChem BioAssay AID624418 (National Center for Advancing Translational Sciences (NCATS), 2012).
# The campaign covered roughly 410,000 compounds. About 530 (0.13%) were called active. This list was built around the results that the source calls inconclusive (neither active nor inactive); the mix of calls is not that of the screen. Calls come from the whole dose curve; as a rule, active = well fitted inhibition curve with a large enough effect; inconclusive = small, poorly fitted or top-dose-only effect, or another doubt; inactive = no such curve, though single readings can be large or run the other way. Where the call is inconclusive, the potency comes from a doubtful curve fit. Where a SMILES comes first, the peptide text is derived from it. [ ]: non-standard residue; d: D form. NMeY = CN[C@@H](Cc1ccc(O)cc1)C(=O)O; NMeF = CN[C@@H](Cc1ccccc1)C(=O)O; 2Abz = Nc1ccccc1C(=O)O
# Assay: qHTS of GLP-1 Receptor Inverse Agonists: Cytotox Screen
# Conditions: HEK293 cAMP-luciferase reporter cells, luminescence, 24 h; series mostly up to 38.3 µM
# Method in brief: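 Step one: seed cells (200 cells/uL, DMEM with 10% Nu serum, 1% pen-strep). Step two: 12-hour incubation at 37 deg C. Step three: pin 23 nL compound, incubate 24 hr. Step four: add luciferase reagent, read luminescence 12 min later.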
# Potency is the fitted concentration of half-maximal effect.
row,SMILES,Potency
1,O=[N+]([O-])c1ccc(C2=NN(CCO)C(=Nc3ccc(OC(F)(F)F)cc3)SC2)cc1,"inconclusive: 28.2 µM [inhibitor, single point]"
2,CCn1ccnc1CN(C)Cc1cn(-c2cc(C)ccc2C)nc1-c1ccccc1,"inconclusive: 28.2 µM [inhibitor, single point]"
3,CC(C(=O)N1CCCCC1)N(C)CC(=O)Nc1ccc(Cl)cc1 (configuration not stated),"inconclusive: 2.51 µM [inhibitor, partial curve, poor fit]"
4,C=C(C)CNC(=S)N/N=C(\C)c1ccc(-n2ccnc2)cc1,"inconclusive: 22.4 µM [inhibitor, single point]"
5,CN1CCN(c2cc(N3CCN(C(=O)c4ccco4)CC3)c3c4c(onc24)-c2ccccc2C3=O)CC1,"inconclusive: 6.31 µM [inhibitor, partial curve]"
6,[O-]/C(=C(\C(=S)Nc1ccc(SC(F)F)cc1)[n+]1cccc(CO)c1)c1ccc(Cl)s1,"inconclusive: 28.2 µM [inhibitor, single point]"
7,CC(C)NC(=O)C1(C)CSCC(=O)N1Cc1cccc(C(F)(F)F)c1 (configuration not stated),inactive
8,CC1=CC(C)(C)n2c(O)c(N=NC(N)=S)c3cc(C)cc1c32,active: 2.82 µM
9,O=C(CN1CCCC1)Nc1ccc(Oc2ccc(NC(=O)CN3CCCC3)cc2)cc1,"inconclusive: 4.47 µM [inhibitor, partial curve, poor fit]"
10,CCC(CC)c1nn2c(N)c(/C=C3\C(C)=Nc4ccccc43)c(=O)nc2s1,"inconclusive: 22.4 µM [inhibitor, single point]"
11,CC(C)C[C@@H]1NC(=O)[C@H](Cc2ccccc2)N(C)C(=O)[C@H](C)NC(=O)c2ccccc2NC(=O)[C@H](Cc2ccc(O)cc2)N(C)C1=O (cyclo([2Abz]A[NMeF]L[NMeY])),"inconclusive: 14.1 µM [inhibitor, partial curve, poor fit]"
12,O=P1(c2ccccc2)C=Cn2c1cc1c2CCCC1 (configuration not stated),inactive
13,Fc1ccc(NC(=S)N2CCCc3ccccc32)cc1,"inconclusive: 14.1 µM [inhibitor, partial curve, poor fit]"
14,CC1(C)Cc2c(c(N3CCOCC3)nc3snc(Br)c23)CO1,inactive
15,COCCNC(=S)NN=C1CCCCCC1,"inconclusive: 28.2 µM [inhibitor, single point]"
16,CCN(CC)c1ccc(/C=N/Nc2nn[nH]n2)cc1,inactive
17,O=C(c1cccc2ccccc12)N1CCC(N2CCN(c3ccccc3)CC2)CC1,"inconclusive: 10 µM [inhibitor, partial curve]"
18,CCOC(=O)C1(Nc2nccs2)Sc2ccccc2NC1=O (configuration not stated),"inconclusive: 2.82 µM [inhibitor, full curve]"
19,COCCNc1oc(-c2ccc(C)cc2)nc1C#N,inactive
20,CCCCn1c(NCCO)nc2ccccc21,inactive
21,CCOc1cc(C(=O)N/N=C(\C)Cc2ccc(OC)cc2)cc(OCC)c1OCC,"inconclusive: 11.2 µM [inhibitor, single point]"

row,SMILES,Potency
1,NC(Cc1ccc(Cl)cc1)c1csc(NC(=O)NCC2CCCCC2)n1 (configuration not stated),"inconclusive: 28.2 µM [inhibitor, single point]"
2,CCN(CCNC(=O)C1CCCN(Cc2nc(-c3ccc(OC)cc3)oc2C)C1)c1ccccc1 (configuration not stated),"inconclusive: 6.31 µM [inhibitor, partial curve, poor fit]"
3,CSc1cccc(NC(=S)NC(=O)c2cccnc2)c1,"inconclusive: 22.4 µM [inhibitor, single point]"
4,COC(=O)c1c(-n2cnnn2)sc(C)c1C,inactive
5,O=[N+]([O-])c1cc(S(=O)(=O)C(F)(F)F)ccc1Sc1nc2ccccc2[nH]1,"inconclusive: 28.2 µM [inhibitor, single point]"
6,CCCn1c(N)cc(=O)n(CCC)c1=O,inactive
7,O=C(O)CCNc1cc(N2CCN(C(=O)c3ccco3)CC2)c2noc3c2c1C(=O)c1ccccc1-3,"inconclusive: 28.2 µM [inhibitor, single point]"
8,COc1ccc(-c2cnnc(N/N=C/c3ccc(O)c(O)c3)n2)cc1,"inconclusive: 10 µM [inhibitor, single point]"
9,COc1cc(-c2noc(-c3ccc(N4CCOCC4)c([N+](=O)[O-])c3)n2)cc(OC)c1OC,inactive
10,COCCN(C(=O)COC(=O)c1ccccc1Nc1ccccc1)c1c(N)n(Cc2ccccc2)c(=O)[nH]c1=O,inactive
11,Oc1c(C(c2ccc(Br)cc2)N2CCOCC2)sc2nc(-c3ccco3)nn12 (configuration not stated),inactive
12,CN(C1CCCCC1)S(=O)(=O)c1ccc(NC(=O)C2CCCCC2)cc1,"inconclusive: 7.94 µM [inhibitor, partial curve]"
13,CCS(=O)(=O)c1nc2ccccc2n1CC(=O)Nc1ccccc1C(=O)OC,"inconclusive: 11.2 µM [inhibitor, single point]"
14,Cc1ccc(-c2nc(Nc3cccc(O)c3)c3ccccc3n2)cc1,"inconclusive: 12.6 µM [inhibitor, single point]"
15,CCOc1ccc(NC(=O)CC2C(=O)N(c3ccc(OCC)cc3)C(=S)N2C2CC2)cc1 (configuration not stated),"inconclusive: 10 µM [inhibitor, partial curve, poor fit]"
16,COc1ccc(CCN(C)Cc2ccc(OCc3ccccc3)c(OC)c2)cc1OC,"inconclusive: 11.2 µM [inhibitor, single point]"
17,Cc1ccc2c(c1)c1c(n2CC(O)Cn2nc(C)c(Br)c2C)CCCC1 (configuration not stated),"inconclusive: 28.2 µM [inhibitor, single point]"
18,COc1ccc(CN(C(=O)CSc2nnc(-c3c[nH]c4ccccc34)o2)c2ccc(F)cc2)cc1OC,"inconclusive: 22.4 µM [inhibitor, single point]"
19,C=CCN(Cc1nc(-c2ccc(OC)cc2)no1)C(=O)c1ccc2c(c1)OCO2,"inconclusive: 11.2 µM [inhibitor, single point]"
20,COc1cc(CNC2CCCC2)cc(Cl)c1OCc1ccccc1Cl,"inconclusive: 14.1 µM [inhibitor, single point]"
21,COCCNC(=S)N/N=C/c1ccc([N+](=O)[O-])cc1,"inconclusive: 22.4 µM [inhibitor, partial curve, poor fit]"
